Measured values as given in paper PMC4336329 (PLoS ONE, 2015).
The campaign covered roughly 310,000 compounds. About 2,200 (0.71%) showed an effect of 50% or more. The effect is printed as a negative number. Some of the results follow.

target: human ether-à-go-go-related gene (hERG) potassium channel (human, UniProt Q12809); experiment: primary screen, population patch clamp on CHO cells stably expressing hERG
Sequence (Q12809 whole entry, looked up): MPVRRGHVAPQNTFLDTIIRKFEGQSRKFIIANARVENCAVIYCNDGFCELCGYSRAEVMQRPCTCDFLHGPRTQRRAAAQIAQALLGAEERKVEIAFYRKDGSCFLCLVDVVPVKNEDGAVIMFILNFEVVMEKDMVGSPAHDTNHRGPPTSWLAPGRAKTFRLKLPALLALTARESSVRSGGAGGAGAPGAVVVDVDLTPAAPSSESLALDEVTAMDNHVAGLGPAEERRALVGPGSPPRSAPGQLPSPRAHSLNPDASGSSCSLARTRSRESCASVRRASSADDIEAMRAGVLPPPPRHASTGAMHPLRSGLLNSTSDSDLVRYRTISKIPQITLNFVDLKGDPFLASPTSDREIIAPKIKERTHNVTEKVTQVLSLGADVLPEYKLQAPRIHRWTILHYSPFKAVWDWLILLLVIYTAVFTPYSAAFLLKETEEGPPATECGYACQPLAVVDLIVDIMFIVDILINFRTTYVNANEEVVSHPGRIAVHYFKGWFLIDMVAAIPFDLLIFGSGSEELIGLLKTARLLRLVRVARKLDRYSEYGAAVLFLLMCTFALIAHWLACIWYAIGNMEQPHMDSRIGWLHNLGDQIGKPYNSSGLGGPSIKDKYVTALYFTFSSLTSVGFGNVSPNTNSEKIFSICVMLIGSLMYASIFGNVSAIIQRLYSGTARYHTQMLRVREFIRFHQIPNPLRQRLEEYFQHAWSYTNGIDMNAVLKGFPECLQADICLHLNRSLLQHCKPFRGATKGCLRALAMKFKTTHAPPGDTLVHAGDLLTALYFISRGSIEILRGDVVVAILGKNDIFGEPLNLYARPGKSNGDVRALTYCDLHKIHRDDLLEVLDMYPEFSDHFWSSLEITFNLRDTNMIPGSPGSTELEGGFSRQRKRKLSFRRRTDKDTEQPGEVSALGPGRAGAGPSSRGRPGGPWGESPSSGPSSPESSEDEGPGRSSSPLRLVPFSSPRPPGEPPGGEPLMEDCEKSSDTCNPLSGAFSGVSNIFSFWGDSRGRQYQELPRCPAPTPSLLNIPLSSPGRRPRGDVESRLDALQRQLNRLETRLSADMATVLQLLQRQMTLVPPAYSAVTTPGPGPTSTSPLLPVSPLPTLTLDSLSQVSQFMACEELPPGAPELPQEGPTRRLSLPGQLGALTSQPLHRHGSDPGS

SMILES | hERG current change (%, negative = inhibition) at 1uM [%]
O=C(N/N=C/c1cccc(Br)c1)c1ccc(Cn2cc(Br)cn2)o1 | -9.02
Cc1cccn2c(=O)c3cc(C(=O)NC4CCCC4)c(=N)n(CCc4ccccc4)c3nc12 | -33.8
C/C(=N\NC(=O)c1ccco1)c1ccc(C(=O)O)s1 | 1.99
COc1ccc(C2=NOC(C(=O)NC3CCCCC3)C2)cc1OC (centres unmarked) | 3.75
O=C(Nc1cccc(S(=O)(=O)NCc2ccco2)c1)c1cc(-c2ccc(F)cc2)nc2ccccc12 | 5.77
Cc1ccc(C)c2[nH]c(=O)c(CN(CCN3CCCC3)C(=O)Nc3cccc(Cl)c3)cc12 | -35.6
COCCN(C(=O)COC(=O)C1CCC(C(C)(C)C)CC1)c1c(N)n(Cc2ccccc2)c(=O)[nH]c1=O (centres unmarked) | -1.05
COc1ccc(S(=O)(=O)Cc2ccc(C(=O)N3CCN(C4CCCCC4)CC3)o2)cc1 | -5.61
CCOC(=O)c1c(SCC(=O)Nc2nccs2)nc(C)c(C)c1C | 11
COc1ccc(S(=O)(=O)N2CCOCC2)cc1NC(=O)CCNC(=O)c1ccc(Br)cc1 | 6.66
O=C(COc1ccc2c3c(c(=O)oc2c1)CCCC3)NCCCn1ccnc1 | 6.73
Br.Cc1ccc(Nc2nc(-c3c(C)nc4ccccn34)cs2)cc1 | -23.5
CCCS(=O)(=O)NCCc1cc2c(C)ccc(C)c2[nH]c1=O | 3.84
CCOC(=O)CSc1cn2c(n1)CCC2 | 14.5
CC(=O)N1CCCc2cc(S(=O)(=O)Nc3ccc4c(c3)OCO4)ccc21 | 9.76
O=c1c2ccccc2nc(-c2ccccc2Cl)n1O | 11.5
CCOC(=O)C1=C(Cc2ccc(Cl)cc2)C(=O)c2ccccc2C1=O | -4.95
C=CCN1C(=O)c2ccccc2Sc2ccc(C(=O)N3CCC4(CC3)OCCO4)cc21 | 7.05
O=C(Cc1ccc(-n2c(=O)c3sccc3n(Cc3ccc(F)cc3)c2=O)cc1)NCc1ccco1 | 7.78
COC(=O)c1ccc(Cl)c(NC(=O)NC2CCCCC2)c1 | 13.2
CCOc1ccc(NC(=O)C/C(C)=N/NC(=O)COc2ccc(Br)cc2C)cc1 | 8.25

SMILES | hERG current change (%, negative = inhibition) at 1uM [%]
CC1CCCCN1C(=O)CN(C)S(=O)(=O)c1cccc2nsnc12 (centres unmarked) | 11.9
COCC(C)n1c(C)cc(C(=O)COC(=O)c2c(C)nn(-c3ccccc3)c2C)c1C (centres unmarked) | 5.13
CCCCN(C)Cc1c(C)[nH]c2c(ccc3ccccc32)c1=O | -56.1
O=C(O)c1cc(-c2ccc(Cl)cc2)n[nH]1 | -0.981
Cc1occc1C(=O)N/N=C/C=C/c1ccccc1[N+](=O)[O-] | 2.1
O=C(CC(c1ccccc1)c1cc(Br)ccc1O)NCCN1CCOCC1 (centres unmarked) | -4.66
O=C(Nc1ccc(Br)cc1)c1cc([N+](=O)[O-])cc([N+](=O)[O-])c1 | 14.1
CC1(C)Cc2ccccc2C(CSc2ccccc2C(=O)O)=N1 | 17.3
COc1cc2c(cc1OC)-c1c3c(cc4c1[C@@H](C2)N(C)CC4)OCO3 | 2.56
Cc1cccc(NC(=O)CSCC(=O)Nc2ccc(S(=O)(=O)N3CCCC3)cc2)c1 | 2.76
N#CC(C(=O)Nc1ccc(Cl)c(Cl)c1)=C1Nc2ccccc2N1 | -4.9
CCOC(=O)N1CCC(Nc2c(Nc3ccc(C)c(C)c3)c(=O)c2=O)CC1 | -0.493
CCOc1ccccc1NS(=O)(=O)c1csc(C(N)=O)c1 | 13.3
O=C(c1cccc(S(=O)(=O)N2CCN(c3ccccc3)CC2)c1)N1CC=C(c2ccccc2)CC1 | 13.8
Cc1cc(C(=O)N/N=C/c2ccc([N+](=O)[O-])cc2)c2ccccc2n1 | 11.5
O=C(Nc1oc2ccc(Cl)cc2c(=O)c1-c1ccc(F)cc1)c1ccco1 | 9.1
CCOC(=O)COc1cccc2c(=O)n(CC(=O)NCCc3ccccc3)ccc12 | 8.91
NC(=O)C(Cc1ccccc1)NS(=O)(=O)c1ccc(N2CCCC2=O)cc1 (centres unmarked) | 2.42
Cc1ccc(S(=O)(=O)NCC2CCC(C(=O)NC3CCCCC3)CC2)cc1 (centres unmarked) | 13.1
COc1ccc(OC)c(-c2c(C#N)c(N)nc3c2c(=O)nc2sccn23)c1 | 12.7
